Our source for the binding signal values is publication PMC9911399, “Two distinct binding modes provide the RNA-binding protein RbFox with extraordinary sequence specificity”.

Numbering of substitutions follows the chain as printed; changes in the protein carry UniProt numbers. The list shows a part of the results.

Sequences and labels used below:
T1: RBFOX1 RRM RbFoxmut (Fox-RRM*) (Homo sapiens, UniProt Q9NWB1 109-208, R118D;E147R;N151S;E152T)
T1 sequence: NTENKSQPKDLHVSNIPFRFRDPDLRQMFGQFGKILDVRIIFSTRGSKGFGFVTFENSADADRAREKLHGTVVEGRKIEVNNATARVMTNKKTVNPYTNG

B1: UGCUAAG (DNA:RNA)
RNA: GGGAGACCGGAAUUCAGAUUGUCCUGCUAAGUUAAAUCCCGUCGUAGCCACCA
DNA 1: CAATCTGAATTCCGGTCTCCC
DNA 2: TGGTGGCTACGACGGGATT
B2: AAUAUAU (DNA:RNA)
RNA: B1 RNA with U25A, G26A, C27U, U28A, A29U, G31U
DNA 1: CAATCTGAATTCCGGTCTCCC
DNA 2: TGGTGGCTACGACGGGATT
B3: AGGCCGG (DNA:RNA)
RNA: B1 RNA with U25A, C27G, U28C, A29C, A30G
DNA 1: CAATCTGAATTCCGGTCTCCC
DNA 2: TGGTGGCTACGACGGGATT
B4: CGUGUUA (DNA:RNA)
RNA: B1 RNA with U25C, C27U, U28G, A29U, A30U, G31A
DNA 1: CAATCTGAATTCCGGTCTCCC
DNA 2: TGGTGGCTACGACGGGATT
B5: AUAGUGC (DNA:RNA)
RNA: GGGAGACCGGAAUUCAGAUUGUCCAUAGUGCUUAAAUCCCGUCGUAGCCACCA
DNA 1: CAATCTGAATTCCGGTCTCCC
DNA 2: TGGTGGCTACGACGGGATT
B6: CCUCACC (DNA:RNA)
RNA: B5 RNA with A25C, U26C, A27U, G28C, U29A, G30C
DNA 1: CAATCTGAATTCCGGTCTCCC
DNA 2: TGGTGGCTACGACGGGATT
B7: CCUCGGA (DNA:RNA)
RNA: B5 RNA with A25C, U26C, A27U, G28C, U29G, C31A
DNA 1: CAATCTGAATTCCGGTCTCCC
DNA 2: TGGTGGCTACGACGGGATT
B8: UCAAGAA (DNA:RNA)
RNA: B1 RNA with G26C, C27A, U28A, A29G, G31A
DNA 1: CAATCTGAATTCCGGTCTCCC
DNA 2: TGGTGGCTACGACGGGATT
B9: CCGAAGG (DNA:RNA)
RNA: B1 RNA with U25C, G26C, C27G, U28A, A30G
DNA 1: CAATCTGAATTCCGGTCTCCC
DNA 2: TGGTGGCTACGACGGGATT
B10: UGGUUGG (DNA:RNA)
RNA: B1 RNA with C27G, A29U, A30G
DNA 1: CAATCTGAATTCCGGTCTCCC
DNA 2: TGGTGGCTACGACGGGATT
B11: GACCAAU (DNA:RNA)
RNA: B1 RNA with U25G, G26A, U28C, G31U
DNA 1: CAATCTGAATTCCGGTCTCCC
DNA 2: TGGTGGCTACGACGGGATT
B12: ACUCUGA (DNA:RNA)
RNA: B5 RNA with U26C, A27U, G28C, C31A
DNA 1: CAATCTGAATTCCGGTCTCCC
DNA 2: TGGTGGCTACGACGGGATT
B13: GACCUAG (DNA:RNA)
RNA: B1 RNA with U25G, G26A, U28C, A29U
DNA 1: CAATCTGAATTCCGGTCTCCC
DNA 2: TGGTGGCTACGACGGGATT
B14: UAAGGGA (DNA:RNA)
RNA: B5 RNA with A25U, U26A, U29G, C31A
DNA 1: CAATCTGAATTCCGGTCTCCC
DNA 2: TGGTGGCTACGACGGGATT
B15: CUUCUUU (DNA:RNA)
RNA: B5 RNA with A25C, A27U, G28C, G30U, C31U
DNA 1: CAATCTGAATTCCGGTCTCCC
DNA 2: TGGTGGCTACGACGGGATT
B16: CUACGCG (DNA:RNA)
RNA: B5 RNA with A25C, G28C, U29G, G30C, C31G
DNA 1: CAATCTGAATTCCGGTCTCCC
DNA 2: TGGTGGCTACGACGGGATT
B17: UCUCCUU (DNA:RNA)
RNA: B1 RNA with G26C, C27U, U28C, A29C, A30U, G31U
DNA 1: CAATCTGAATTCCGGTCTCCC
DNA 2: TGGTGGCTACGACGGGATT
B18: GUAACCU (DNA:RNA)
RNA: B5 RNA with A25G, G28A, U29C, G30C, C31U
DNA 1: CAATCTGAATTCCGGTCTCCC
DNA 2: TGGTGGCTACGACGGGATT
B19: CUACGAC (DNA:RNA)
RNA: B5 RNA with A25C, G28C, U29G, G30A
DNA 1: CAATCTGAATTCCGGTCTCCC
DNA 2: TGGTGGCTACGACGGGATT
B20: UCAGGGC (DNA:RNA)
RNA: B5 RNA with A25U, U26C, U29G
DNA 1: CAATCTGAATTCCGGTCTCCC
DNA 2: TGGTGGCTACGACGGGATT
B21: CCCGCUG (DNA:RNA)
RNA: B1 RNA with U25C, G26C, U28G, A29C, A30U
DNA 1: CAATCTGAATTCCGGTCTCCC
DNA 2: TGGTGGCTACGACGGGATT
B22: UAACACG (DNA:RNA)
RNA: B1 RNA with G26A, C27A, U28C, A30C
DNA 1: CAATCTGAATTCCGGTCTCCC
DNA 2: TGGTGGCTACGACGGGATT
B23: UAGCAGU (DNA:RNA)
RNA: B1 RNA with G26A, C27G, U28C, A30G, G31U
DNA 1: CAATCTGAATTCCGGTCTCCC
DNA 2: TGGTGGCTACGACGGGATT
B24: UCGCGAC (DNA:RNA)
RNA: B1 RNA with G26C, C27G, U28C, A29G, G31C
DNA 1: CAATCTGAATTCCGGTCTCCC
DNA 2: TGGTGGCTACGACGGGATT
B25: GUGUGUG (DNA:RNA)
RNA: B1 RNA with U25G, G26U, C27G, A29G, A30U
DNA 1: CAATCTGAATTCCGGTCTCCC
DNA 2: TGGTGGCTACGACGGGATT
B26: AAAUCAG (DNA:RNA)
RNA: B1 RNA with U25A, G26A, C27A, A29C
DNA 1: CAATCTGAATTCCGGTCTCCC
DNA 2: TGGTGGCTACGACGGGATT
B27: CAACUUC (DNA:RNA)
RNA: B5 RNA with A25C, U26A, G28C, G30U
DNA 1: CAATCTGAATTCCGGTCTCCC
DNA 2: TGGTGGCTACGACGGGATT
B28: GGAGGAC (DNA:RNA)
RNA: B5 RNA with A25G, U26G, U29G, G30A
DNA 1: CAATCTGAATTCCGGTCTCCC
DNA 2: TGGTGGCTACGACGGGATT
B29: UGCAUUC (DNA:RNA)
RNA: B1 RNA with U28A, A29U, A30U, G31C
DNA 1: CAATCTGAATTCCGGTCTCCC
DNA 2: TGGTGGCTACGACGGGATT
B30: CACUAUU (DNA:RNA)
RNA: B1 RNA with U25C, G26A, A30U, G31U
DNA 1: CAATCTGAATTCCGGTCTCCC
DNA 2: TGGTGGCTACGACGGGATT
B31: UGUGGGU (DNA:RNA)
RNA: B5 RNA with A25U, U26G, A27U, U29G, C31U
DNA 1: CAATCTGAATTCCGGTCTCCC
DNA 2: TGGTGGCTACGACGGGATT

The test deals with T1, RBFOX1 RRM RbFoxmut (Fox-RRM*). Kind of test: EMSA; HiTS-Eq, 1 nM pool, 10 min; buffer printed only for the single-RNA assays: 10 mM Tris pH 7.5, 150 mM NaCl, 3.4 mM EDTA, 0.001% NP-40, 30 C. The conditions noted are these: tags: His6 N-terminal (pET28a); label: 5' 32P. Put shortly:
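A pool of RNA with 7 randomized nucleotides, 5′-radiolabelled and with DNA-annealed flanks, was equilibrated at 1 nM for 10 min in 50 µL with purified RbFox RRM, wild type or mutant, across increasing protein concentrations. Free RNA was separated by 8% native PAGE, excised, reverse-transcribed, barcoded by PCR and sequenced. Relative association constants were obtained from read-count changes of each RNA species versus the control reaction and normalised to the cognate motif.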
(In general: A gel shift assay detects complexes by their altered migration in electrophoresis.)
In the case of B1, the binding signal was 0.0956 KA relative to UGCAUGU.
The same measure for B2: 0.0999 KA relative to UGCAUGU.
For B3 the value was 0.0906 KA relative to UGCAUGU.
Regarding B4, the binding signal was 0.126 KA relative to UGCAUGU.
The same measure for B5: 0.129 KA relative to UGCAUGU; for B6: 0.0516 KA relative to UGCAUGU.
The same measure for B7: 0.0795 KA relative to UGCAUGU; for B8: 0.107 KA relative to UGCAUGU; for B9: 0.0934 KA relative to UGCAUGU.
The same measure for B10: 0.309 KA relative to UGCAUGU; for B11: 0.0562 KA relative to UGCAUGU; for B12: 0.072 KA relative to UGCAUGU.
On to B13, for which the binding signal was 0.103 KA relative to UGCAUGU.
Turning to B14, the binding signal was 0.0484 KA relative to UGCAUGU.
The same measure for B15: 0.0807 KA relative to UGCAUGU; for B16: 0.11 KA relative to UGCAUGU.
For B17 the value was 0.0512 KA relative to UGCAUGU; for B18, 0.0824 KA relative to UGCAUGU; for B19, 0.104 KA relative to UGCAUGU.
For B20 the value was 0.0778 KA relative to UGCAUGU; for B21, 0.101 KA relative to UGCAUGU; for B22, 0.101 KA relative to UGCAUGU.
On to B23, for which the binding signal was 0.0735 KA relative to UGCAUGU.
The same measure for B24: 0.0616 KA relative to UGCAUGU.
The same measure for B25: 0.532 KA relative to UGCAUGU; for B26: 0.0659 KA relative to UGCAUGU.
For B27 the value was 0.0723 KA relative to UGCAUGU.
For B28, the binding signal was 0.0669 KA relative to UGCAUGU.
The same measure for B29: 0.13 KA relative to UGCAUGU; for B30: 0.0863 KA relative to UGCAUGU; for B31: 0.153 KA relative to UGCAUGU.
